Reference: the supplement of paper PMC4967469

Key:
Assay in all cases: Viability of human cancer cell lines after 72 h of drug (GDSC screen)
Obatoclax mesylate = compound: COC1=CC(c2cc3ccccc3[nH]2)=N/C1=C\c1[nH]c(C)cc1C [Obatoclax mesylate]; details: top dose 16 µM
Experimental: (§1)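 Human cancer cell lines in 384-well plates, medium with 10% serum, drug for 72 h over a 256-fold dose range (nine 2-fold or five 4-fold steps up to the top dose). Adherent lines were fixed and stained with the nucleic acid dye Syto60, suspension lines read with resazurin; signal relative to control wells, capped at 0 and 100%. One two-parameter sigmoid per drug and line, fitted in a mixed model over all curves with the slope shared within a line.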

CP724714 = compound: COCC(=O)NC/C=C/c1ccc2ncnc(Nc3ccc(Oc4ccc(C)nc4)c(C)c3)c2c1 [CP724714]; details: top dose 10.24 µM; top dose inferred
Experimental: as §1

STF-62247 = compound: Cc1cccc(Nc2nc(-c3ccncc3)cs2)c1 [STF-62247]; details: top dose 10.24 µM; top dose inferred
Experimental: as §1

CX-5461 = compound: Cc1cnc(CNC(=O)c2c(=O)c3ccc(N4CCCN(C)CC4)nc3n3c2sc2ccccc23)cn1 [CX-5461]; details: top dose 10.24 µM; top dose inferred
Experimental: as §1

Cell Line	AUC (Obatoclax mesylate)	IC50 (Obatoclax mesylate)	AUC (CP724714)	IC50 (CP724714)	AUC (STF-62247)	IC50 (STF-62247)	AUC (CX-5461)	IC50 (CX-5461)
PCI-30 (head and neck, adherent)	0.759	6.77 µM	0.975	> 10.2 µM	0.983	> 10.2 µM	0.985	> 10.2 µM
PCI-38 (head and neck, adherent)	0.473	0.842 µM	0.961	> 10.2 µM	0.971	> 10.2 µM	0.924	> 10.2 µM
PE/CA-PJ15 (head and neck, adherent)	0.679	3.32 µM	0.962	> 10.2 µM	0.986	> 10.2 µM	0.984	> 10.2 µM
PFSK-1 (medulloblastoma, adherent)	0.53	1.22 µM	0.98	> 10.2 µM	0.976	> 10.2 µM	0.986	> 10.2 µM
PL4 (pancreas, adherent)	0.637	2.43 µM	0.98	> 10.2 µM	0.987	> 10.2 µM	0.96	> 10.2 µM
PL18 (pancreas, adherent)	0.464	0.799 µM	0.973	> 10.2 µM	0.984	> 10.2 µM	0.986	> 10.2 µM
RCM-1 (large intestine, adherent)	0.426	0.599 µM	0.972	> 10.2 µM	0.985	> 10.2 µM	0.985	> 10.2 µM
RD (rhabdomyosarcoma, adherent)	0.216	0.134 µM	0.985	> 10.2 µM	0.977	> 10.2 µM	0.736	3.24 µM
RERF-LC-KJ (lung adenocarcinoma, adherent)	0.477	0.864 µM	0.983	> 10.2 µM	0.984	> 10.2 µM	0.982	> 10.2 µM
RERF-LC-MS (lung adenocarcinoma, adherent)	0.527	1.18 µM	0.977	> 10.2 µM	0.985	> 10.2 µM	0.951	> 10.2 µM
RERF-LC-Sq1 (lung squamous cell carcinoma, adherent)	0.761	8.34 µM	0.976	> 10.2 µM	0.974	> 10.2 µM	0.956	> 10.2 µM
RH-41 (rhabdomyosarcoma, adherent)	0.414	0.607 µM	0.989	> 10.2 µM	0.992	> 10.2 µM	0.99	> 10.2 µM
RKN (ovary, adherent)	0.378	0.453 µM	0.972	> 10.2 µM	0.961	> 10.2 µM	0.984	> 10.2 µM
RMG-I (ovary, adherent)	0.492	0.95 µM	0.917	> 10.2 µM	0.967	> 10.2 µM	0.932	> 10.2 µM
RO82-W-1 (thyroid, adherent)	0.626	2.46 µM	0.982	> 10.2 µM	0.977	> 10.2 µM	0.981	> 10.2 µM
RPMI-2650 (head and neck, adherent)	0.081	< 0.0625 µM	0.978	> 10.2 µM	0.974	> 10.2 µM	0.792	5.06 µM
RPMI-7951 (melanoma, adherent)	0.343	0.373 µM	0.956	> 10.2 µM	0.958	> 10.2 µM	0.684	2.06 µM
RT4 (bladder, adherent)	0.554	1.42 µM	0.953	> 10.2 µM	0.987	> 10.2 µM	0.881	> 10.2 µM
RT-112 (bladder, adherent)	0.242	0.168 µM	0.978	> 10.2 µM	0.985	> 10.2 µM	0.944	> 10.2 µM
RVH-421 (melanoma, adherent)	0.218	0.106 µM	0.922	> 10.2 µM	0.957	> 10.2 µM	0.894	> 10.2 µM
SAS (head and neck, adherent)	0.146	0.0672 µM	0.953	> 10.2 µM	0.969	> 10.2 µM	0.77	4.35 µM
SAT (head and neck, adherent)	0.747	7.74 µM	0.906	> 10.2 µM	0.947	> 10.2 µM	0.938	> 10.2 µM
SBC-3 (small cell lung carcinoma, adherent)	0.141	0.0882 µM	0.974	> 10.2 µM	0.985	> 10.2 µM	0.543	0.831 µM
SBC-5 (small cell lung carcinoma, adherent)	0.251	0.229 µM	0.984	> 10.2 µM	0.992	> 10.2 µM	0.993	> 10.2 µM

A lower IC50 marks a more sensitive line; a fit beyond the top or the lowest dose is shown as a bound at that dose. The AUC spans the tested range (256-fold, ending at the top dose) of the same fit; values near 1 show little effect. For part of these data: Where the top dose is marked as inferred, it is not printed in the source and was worked back from the curve model.
